{"source": "PubChem BioAssay AID463173", "about": "(ICCB-Longwood Screening Facility, Harvard Medical School, 2010)", "note": "Among all 52,000 compounds or so, about 1,700 (3.3%) were called active. Rule as the data show it: active = survival mostly below about 52% (no sharp cut-off); inactive = mostly above about 56%. The list shows a part of the results.", "data": [{"system": "Wild type", "experiment": "S. aureus survival, RN4220 and DeltatarO strains – OD600, teichoic acid synthesis inhibitors, primary screen (AID 463173)", "settings": "S. aureus RN4220 wild type/DeltatarO growth, OD600, 18 h, active compounds read low, screened at 18.75 µg/mL (by protocol)", "values": [{"smiles": "O=C(CN1C(=O)c2ccccc2C1=O)OC(C(=O)NC1CCCC1)c1ccncc1", "note": "(stereo unspecified)", "survival": "inactive: 105%"}, {"smiles": "COc1ccc(NC(=O)C2=CC(c3cccs3)=NS(=O)(=O)N2C)cc1", "survival": "inactive: 92%"}, {"smiles": "Cc1ccc(NC(=O)CN2C(=O)CCSc3ccc(S(=O)(=O)N4CCCC4)cc32)cc1", "survival": "inactive: 91%"}, {"smiles": "COc1ccc(CC(=O)Nc2nc3c(s2)CC(C(C)(C)C)CC3)cc1", "note": "(stereo unspecified)", "survival": "inactive: 70%"}, {"smiles": "CCn1c(CNC(=O)c2ccc(OC)cc2)nnc1SCC(=O)Nc1ccc(OC)cc1", "survival": "inactive: 131%"}, {"smiles": "CCc1ccc(-c2nc(CSCC(=O)NCc3ccccc3OC)c(C)o2)cc1", "survival": "inactive: 78%"}, {"smiles": "Cc1ccc(-c2nc3c(c(SCC(=O)N4CCCCC4)n2)Cc2cc(C)ccc2O3)cc1", "survival": "inactive: 70%"}, {"smiles": "COc1ccc(-c2nc3scc(CCNS(=O)(=O)c4ccc(F)cc4F)n3n2)cc1OC", "survival": "inactive: 64%"}, {"smiles": "CC(C)NC(=O)Nc1ccc2c(c1)N(C)C(=O)c1ccccc1S2", "survival": "inactive: 121%"}, {"smiles": "O=C(NCCc1ccccc1)c1ccc2c(c1)N(Cc1ccccc1Cl)C(=O)c1ccccc1S2", "survival": "inactive: 74%"}, {"smiles": "CCOc1ccc(CC(=O)Nc2ccc3nc(N4CCCCC4)cc(C)c3c2)cc1OCC", "survival": "inactive: 101%"}, {"smiles": "COc1ccccc1CNC(=O)C(Cc1ccccc1)NS(=O)(=O)c1ccc2c(c1)oc(=O)n2C", "note": "(stereo unspecified)", "survival": "inactive: 80%"}, {"smiles": "CCOC(=O)c1cccc(NC(=O)CSc2ncc3c(n2)-c2ccccc2N(C)S3(=O)=O)c1", "survival": "inactive: 47%"}, {"smiles": "O=C1CC(c2nc3ccccc3n2CCCCOc2ccccc2)CN1c1ccccc1Cl", "note": "(stereo unspecified)", "survival": "inactive: 61%"}, {"smiles": "CC1CCCCN1Cc1c(O)ccc2c(=O)c(-c3cccc(Cl)c3)c(C(F)(F)F)oc12", "note": "(stereo unspecified)", "survival": "inactive: 69%"}, {"smiles": "CCc1nnc(NC(=O)CSc2nc3c([nH]c4ccccc43)c(=O)n2-c2cc(C)cc(C)c2)s1", "survival": "inactive: 76%"}, {"smiles": "CCOc1ccc(Cn2c(=O)oc3ccccc32)cc1", "survival": "inactive: 114%"}, {"smiles": "O=C(C1CCC(CNS(=O)(=O)c2ccc(Br)s2)CC1)N1CCN(c2ccccc2)CC1", "note": "(stereo unspecified)", "survival": "inactive: 68%"}, {"smiles": "Clc1cccc(CNc2ncnc3c2nc2n3CCCC2)c1", "survival": "inactive: 92%"}, {"smiles": "Cc1nnc(SCc2cc(=O)n3c(C)cccc3n2)s1", "survival": "inactive: 81%"}, {"smiles": "COc1ccc(-n2ncc3c(N4CCN(c5cccc(C)c5)C(C)C4)ncnc32)cc1", "note": "(stereo unspecified)", "survival": "inactive: 127%"}, {"smiles": "Cc1ccc(-c2noc(COc3ccc(Br)c(C)c3)n2)cc1", "survival": "inactive: 124%"}, {"smiles": "COc1ccc(Cl)cc1NC(=O)CCc1nc(-c2ccccc2F)no1", "survival": "inactive: 38%"}, {"smiles": "Cc1c(C(=O)N2CCCC2)oc2c1-c1nn(CC(=O)NCc3cccc(Br)c3)cc1CC2", "survival": "inactive: 87%"}, {"smiles": "CC1S/C(=N\\C(=O)Nc2ccc(Cl)cc2)NC1=O", "note": "(stereo unspecified)", "survival": "inactive: 103%"}, {"smiles": "NS(=O)(=O)c1ccc(NC(=O)CCn2c(=O)oc3ccccc32)cc1", "survival": "inactive: 69%"}, {"smiles": "O=C(Cn1c(=O)n(Cc2ccc3c(c2)OCO3)c(=O)c2ccccc21)Nc1cccc(Cl)c1", "survival": "inactive: 60%"}, {"smiles": "OC1(c2ccccc2F)CCN(CCN2CCCCC2)CC1", "survival": "inactive: 104%"}, {"smiles": "COC(=O)C1C(=O)C2=C(CC1C)Nc1ccccc1NC2c1ccc(N(C)C)cc1", "note": "(stereo unspecified)", "survival": "inactive: 102%"}, {"smiles": "Cn1c(=O)oc2cc(S(=O)(=O)CCC(=O)NCc3ccccc3)ccc21", "survival": "inactive: 73%"}, {"smiles": "CCOc1ccc(N2CC(c3nc(-c4cc(OC)c(OC)c(OC)c4)no3)CC2=O)cc1", "note": "(stereo unspecified)", "survival": "inactive: 75%"}, {"smiles": "CCOc1ccc(N(C)S(=O)(=O)c2ccc3c(c2)C(C)(C)C(=O)N3C)cc1", "survival": "inactive: 84%"}, {"smiles": "Cc1ccc(-n2nnc3c(sc4nc(C)c(C)cc43)c2=O)cc1Cl", "survival": "inactive: 84%"}, {"smiles": "Cc1ccc(C)c(NC(=O)C2CCCN(S(=O)(=O)c3c(C)noc3/C=C/N(C)C)C2)c1", "note": "(stereo unspecified)", "survival": "inactive: 115%"}, {"smiles": "COc1ccc(CSc2nc3ncccc3[nH]2)cc1", "survival": "inactive: 72%"}, {"smiles": "O=C(NC1CCCC1)c1c[nH]c2ccc(S(=O)(=O)Nc3cccc(C(F)(F)F)c3)cc2c1=O", "survival": "active: 11%"}, {"smiles": "COc1ccc(CNC(=O)C2=C(C(=O)O)CCCC2)cc1", "survival": "inactive: 121%"}, {"smiles": "COc1cccc(N2CC(NC(=O)c3ccc(S(=O)(=O)N4CCCC4)cc3)CC2=O)c1", "note": "(stereo unspecified)", "survival": "inactive: 59%"}, {"smiles": "COCCNC(=O)C1CCN(S(=O)(=O)c2ccc3c(c2)CCCN3C(C)=O)CC1", "survival": "inactive: 77%"}, {"smiles": "COc1ccc(-c2nc3n(n2)C(c2ccc(OC)cc2)C(C(=O)Nc2cccnc2)=C(C)N3)cc1", "note": "(stereo unspecified)", "survival": "inactive: 73%"}, {"smiles": "CCOC(=O)c1[nH]c(C)c(CCC(=O)N2CCN(c3ccccc3)CC2)c1C", "survival": "inactive: 91%"}, {"smiles": "CCOC(=O)c1c(C)oc2nc(C)nc(NCC3CCN(Cc4ccc(Cl)cc4)CC3)c12", "survival": "inactive: 78%"}, {"smiles": "CC(=O)OCC#CCSc1nnc(-c2cccc(Br)c2)o1", "survival": "inactive: 49%"}, {"smiles": "CCN(c1ccccc1)S(=O)(=O)c1nnc(NC(=O)COc2ccc(OC)cc2)s1", "survival": "inactive: 81%"}, {"smiles": "CCOC(=O)c1c(C)[nH]c(CCC(=O)NCCCN2CCN(c3cccc(Cl)c3)CC2)c1C", "survival": "inactive: 70%"}, {"smiles": "CCOc1ccc(-n2c(Cc3ccccc3)nnc2SCc2nc(-c3ccccc3C)no2)cc1", "survival": "inactive: 90%"}, {"smiles": "CC(=O)NCCNC(=O)CCCc1nnc2n(CCC(C)C)c(=O)c3sccc3n12", "survival": "inactive: 97%"}, {"smiles": "CCn1c(CN2CCC(C)CC2)nc2cc(NC(=O)c3ccccc3[N+](=O)[O-])ccc21", "survival": "inactive: 80%"}, {"smiles": "Cc1ccc(C)c(Cn2c(=O)c3c(nc4n3CCN4c3ccc(F)cc3)n(C)c2=O)c1", "survival": "inactive: 91%"}, {"smiles": "CC(C)N(C(=O)c1cc2sccc2n1Cc1ccc(F)cc1)C(C)C", "survival": "inactive: 135%"}, {"smiles": "CCc1ccc(OC(=O)CSc2nnc(-c3ccc4c(c3)OCO4)o2)cc1", "survival": "inactive: 85%"}, {"smiles": "CCS(=O)(=O)N1CCc2cc(C(=O)N3CCN(c4cccc(C(F)(F)F)c4)CC3)ccc21", "survival": "inactive: 95%"}, {"smiles": "Cc1ccc(NC(=O)C(=O)NCC(c2cccnc2)N2CCOCC2)cc1C", "note": "(stereo unspecified)", "survival": "inactive: 83%"}, {"smiles": "Oc1cccc(C(Nc2ccccn2)c2ccc3cccnc3c2O)c1Cl", "note": "(stereo unspecified)", "survival": "inactive: 76%"}, {"smiles": "CCOCCCNC(=O)C(c1ccc(OC)cc1)N(Cc1cccs1)C(=O)c1ccc(NC(C)=O)cc1", "note": "(stereo unspecified)", "survival": "inactive: 74%"}, {"smiles": "Cc1cc(-c2ccc(N3C(=O)CCC3=O)c(C)c2)ccc1N1C(=O)CCC1=O", "survival": "inactive: 107%"}]}]}
